# Values joined by “and” are separate entries in the source; they are usually repeats but may differ in a detail not shown here. Equal values may be shown once. Screen size: about 310,000 compounds; about 18,000 (5.8%) were called active. The inconclusive results got no clear call from the source; some entries with a clear call stand among them for comparison. The call rests on the fitted dose curve; in most records, active means well fitted inhibition curve with a large enough effect; inconclusive means small, poorly fitted or top-dose-only effect, or another doubt; inactive means no such curve, though single readings can be large or run the other way. No potency is given beside an inconclusive call; the fits are too rough.
# Experiment: Primary qHTS for delayed death inhibitors of the malarial parasite plastid, 48 hour incubation
# Details: P. falciparum luciferase growth in erythrocytes; series mostly up to 28.7 µM
# In short: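 Parasite viability was followed by luminescence of a genomically integrated firefly luciferase. Cultures held 0.1% parasitemia at 2% hematocrit (final), incubated under 5% CO2 at 37 C.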
# Potency means the concentration at half of the fitted maximal effect; tags describe the fitted curve by direction and shape.
row,SMILES,Potency
1,N#Cc1ccsc1NC(=O)CN1CCN(S(=O)(=O)c2ccc3ccccc3c2)CC1,"inconclusive [inhibitor, single point]"
2,Cc1ccc(OCC(=O)N2CCC3(CC2)CC(=O)c2ccccc2O3)cc1,"inconclusive [inhibitor, partial curve, poor fit]"
3,CCOc1cc(/C=N/NC(=O)CN(CCc2ccccc2)S(=O)(=O)c2ccc(NC(C)=O)cc2)ccc1O,"inconclusive [inhibitor, partial curve]"
4,CN1C[C@H](CNC(=O)OCc2ccccc2)C[C@@H]2c3cccc4c3c(cn4C)C[C@H]21,active: 10.7 µM and active: 10.4 µM
5,O=S(=O)(Nc1ccc(S(=O)(=O)Nc2nccs2)cc1)c1ccc2c(c1)OCCO2,inactive
6,CC(=O)c1ccc(-c2ccc([C@H]3[C@@H]4C=CCC[C@@]4(C)C(=O)N3Cc3ccccc3)c(F)c2)cc1,active: 11.7 µM
7,O=C(NCC(c1cccs1)N1CCOCC1)c1cc(Cl)ccc1[N+](=O)[O-] (stereo not drawn),inactive
8,Cc1nc2ccccc2n1CC(=O)NC1CCCCCC1,inactive
9,CCc1nc(SCC(=O)Nc2ccccc2OC)c2c(C)c(C)sc2n1,active: 13.1 µM
10,Oc1ccc(N2CCN(CC(O)c3ccccc3)CC2)cc1 (stereo not drawn),"inconclusive [inhibitor, single point]"
11,O=C(NC1=NCCS1)c1sc2cc(Cl)cc(Cl)c2c1Cl,"inconclusive [inhibitor, single point]"
12,CC12CCCCN1CCCc1c2[nH]c2ccccc12 (stereo not drawn),"inconclusive [inhibitor, single point]"
13,CCOc1nc(-c2ccccc2)ccc1-c1noc(COC)n1,"inconclusive [inhibitor, partial curve]"
14,Cc1cccc2cc(CN(CC3CCCO3)C(=O)c3cccnc3)c3nnnn3c12 (stereo not drawn),"inconclusive [inhibitor, single point]"
15,CCC1Nc2ncnc(N3CCN(c4ccccc4)CC3)c2N(Cc2ccc(Br)cc2)C1=O (stereo not drawn),active: 11.7 µM
16,O=C(COC(=O)c1cc(S(=O)(=O)N2CCOCC2)ccc1O)NCc1ccc2c(c1)OCO2,"inconclusive [inhibitor, single point]"
17,CCCc1cc(=O)[nH]c(SCC(=O)c2cc(C)n(C(C)COC)c2C)n1 (stereo not drawn),inactive
18,Cn1c(-c2ccc3ccccc3n2)[n+](C)c2ccccc21,"inconclusive [inhibitor, full curve]"
19,COc1ccc2nc(C)cc(N3CCN(S(=O)(=O)c4ccccc4F)CC3)c2c1,"inconclusive [inhibitor, single point]"
20,O=C(Cc1cccs1)N1CCN(S(=O)(=O)c2ccc(Cl)c(C(F)(F)F)c2)CC1,"inconclusive [inhibitor, single point]"
21,CCN(CC)c1ccc(C(=O)OCC(=O)Nc2ccccc2-c2ccccc2)cc1,"inconclusive [inhibitor, single point]"
22,CN(CC(=O)Nc1ccc(F)c(F)c1F)C(=O)C1CCN(C(=O)Nc2ccccc2)CC1,"inconclusive [inhibitor, single point]"
23,O=c1c(-c2n[nH]c(=S)n2-c2ccccc2)cccn1Cc1cccc(Cl)c1,inactive

row,SMILES,Potency
1,CCN(CC)Cc1nc2c(c(=O)[nH]1)C1(CCCC1)Cc1ccccc1-2,"inconclusive [inhibitor, single point]"
2,Cc1ccc(-n2c(SCC(=O)OC(C)C)nnc2-c2ccco2)cc1,"inconclusive [inhibitor, partial curve]"
3,O=C(/C=C(/c1ccc(Cl)cc1)n1cncn1)c1ccccc1,"inconclusive [inhibitor, partial curve, poor fit]"
4,CC1CC(C)CN(S(=O)(=O)N2CCCC(C(=O)NC3CCCCC3C)C2)C1 (stereo not drawn),inactive
5,CC1=C(C(=O)OCc2ccccc2)C(c2ccccc2OC(F)F)NC(=O)N1 (stereo not drawn),"inconclusive [inhibitor, single point]"
6,CCn1c(-c2cc(OC)ccc2OC)csc1=Nc1c(C)n(C)n(-c2ccccc2)c1=O,"inconclusive [inhibitor, partial curve]"
7,COc1ccc(NC(=O)CSc2n[nH]c(CNc3cccc(C)c3)n2)cc1,inactive
8,CC(C)[C@H](NC(=O)N1c2ccccc2NC(=O)[C@@H]1C(C)C)C(=O)N[C@@H](Cc1c[nH]c2ccccc12)C(=O)O,"inconclusive [inhibitor, single point]"
9,N=C1C(c2ccccc2)=C(O)CN1CCCO,"inconclusive [inhibitor, partial curve, poor fit]"
10,Cc1cc(C)c(C)c(Cn2c(CO)nc3ccccc32)c1C,"inconclusive [inhibitor, single point]"
11,Cc1cc(C(=O)CSc2nnc(-c3ccc(Cl)cc3)n2CC2CCCO2)c(C)n1C (stereo not drawn),"inconclusive [inhibitor, single point]"
12,COc1ccc(CN2CCC(n3nccc3NC(=O)CCc3ccccc3)CC2)c(C)c1C,"inconclusive [inhibitor, single point]"
13,CC(C(=O)N1CCc2ccccc21)N1CCN(Cc2ccc(Cl)cc2)CC1 (stereo not drawn),inactive
14,CC1Oc2ccccc2N(CC(=O)N2CCCCC2)C1=O (stereo not drawn),"inconclusive [inhibitor, full curve, poor fit]"
15,CCn1ccc(C(=O)Oc2ccc(Cl)cc2)n1,inactive
16,COc1nc(N(C)S(=O)(=O)c2ccc(C)cc2)nc(C)c1Br,"inconclusive [inhibitor, full curve, poor fit]"
17,Cc1ccccc1-n1ncc2c1CC(C)(C)CC2NC(=O)c1cn[nH]c1C (stereo not drawn),inactive
18,O=C(c1noc2c1CCCC2)N1CCCC(N2CCN(c3ccccc3F)CC2)C1 (stereo not drawn),"inconclusive [inhibitor, partial curve]"
19,CCC(C)NCC(O)COCc1ccc(Cl)cc1 (stereo not drawn),"inconclusive [inhibitor, partial curve, poor fit]"
20,CC(C)(C)OC(=O)NCCc1nnc(S(=O)(=O)Cc2ccc(Cl)cc2Cl)o1,inactive
21,O=C(O)c1cc([N+](=O)[O-])cc2c1nnn2O,inactive
22,COc1ccc(/C=N/NC(=O)c2cc(C(C)(C)C)[nH]n2)cc1COc1ccc(F)cc1F,"inconclusive [inhibitor, single point]"
23,C/C(CC(=O)Nc1ccc(Cl)c(Cl)c1)=N\NC(=O)Cc1ccccc1,inactive

row,SMILES,Potency
1,Cc1ccc(NC(=O)COC(=O)/C=C/c2ccccc2)cc1S(=O)(=O)N1CCOCC1,inactive
2,CC1CCc2cc(F)ccc2N1S(=O)(=O)c1ccc(Cl)nc1 (stereo not drawn),"inconclusive [inhibitor, partial curve, poor fit]"
3,CCN(CC)S(=O)(=O)c1cc(NC(=O)C2CSC3(C)CCC(=O)N23)ccc1C (stereo not drawn),"inconclusive [inhibitor, single point]"
4,COc1ccc(C)cc1NC(=O)CSc1nc2ccccc2nc1N1CCCCC1,active: 4.15 µM
5,Cc1ccc(NS(=O)(=O)c2cc(OCC(N)=O)c(C)cc2Cl)cc1C,active: 11.7 µM
6,Cn1c(O)c(C(=Nc2ccccc2)SCc2ccc(Cl)cc2)c(=O)n(C)c1=O,"inconclusive [inhibitor, single point]"
7,Cc1cc(NC(=O)/C=C/c2ccc(F)cc2)n(-c2nc3ccccc3[nH]2)n1,"inconclusive [inhibitor, single point]"
8,O=C(C[n+]1ccccc1)N/N=C/c1ccccc1F,inactive
9,Cc1nc2cc(NCc3cc([N+](=O)[O-])ccc3O)ccc2n1Cc1ccccc1,"inconclusive [inhibitor, single point]"
10,COc1cccc(NC(=O)c2ccc(NCCCN3CC(C)CC(C)C3)c([N+](=O)[O-])c2)c1 (stereo not drawn),"inconclusive [inhibitor, full curve]"
11,CCN(C(=O)COC(=O)CCS(=O)(=O)c1ccc(C)cc1)C1CCS(=O)(=O)C1 (stereo not drawn),inactive
12,Fc1ccc(CNC(=S)NC2CCCCCC2)cc1,"inconclusive [inhibitor, partial curve, poor fit]"
13,CCOC(=O)C1(Cc2ccccc2)CCN(Cc2ccc3cc(NC(C)=O)ccc3n2)CC1,"inconclusive [inhibitor, single point]"
14,CC(C)n1nnnc1-c1cccc(Cl)c1,inactive
15,Cc1ccc(N2C(=O)C(CC(=O)Nc3cccc(F)c3)N(CCc3ccncc3)C2=O)cc1 (stereo not drawn),"inconclusive [inhibitor, single point]"
16,Oc1c(C=NCc2ccncc2)sc2ccccc12,inactive
17,O=C(CNC(=O)c1ccc(OC(F)F)cc1)NCC1(N2CCOCC2)CCCCC1,"inconclusive [inhibitor, single point]"
18,CCc1nn2c(=O)cc(COC(=O)c3ccc(SC)cc3OC)nc2s1,"inconclusive [inhibitor, single point]"
19,CC(NC(=O)c1ccc(N2CCCC2=O)cc1)c1ccccc1 (stereo not drawn),"inconclusive [inhibitor, full curve, poor fit]"
20,O=C(CN(C(=O)c1ccc(Cl)cc1)C1CCCCC1)Nc1ccc(Cl)c([N+](=O)[O-])c1,"inconclusive [inhibitor, single point]"
21,COc1ccc(C(=O)Nc2ccncc2)cc1S(=O)(=O)N1CCOCC1,"inconclusive [inhibitor, single point]"
22,OCCNc1nc(Nc2ccc(O)cc2)nc2ccccc12,active: 1.65 µM

# — PubChem BioAssay AID504832 (National Center for Advancing Translational Sciences (NCATS), 2011)
